# In the supplement of paper PMC11417369:
# The other results are listed elsewhere or left out.
# System: PfAP2-HC AP2 domain (GST-tagged)
# Test: gcPBM binding intensity (ln(normalized median fluorescence intensity)); higher = stronger DNA binding
# Outline: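 GST-tagged P. falciparum DNA-binding domains, expressed in E. coli (about 25 μg on average), were applied for 1 h to an Agilent 4 × 180k array of primer-extended double-stranded 36-bp intergenic genomic probes plus negative controls. The binding buffer was 1× PBS with 1% milk, 0.2 mg/ml BSA, 0.5% salmon testes DNA and 0.03% Triton X-100. Bound protein was detected with Alexa488 anti-GST antibody and scanned at 488 nm. Binding intensity is the highest Masliner-normalised natural-log median intensity across replicate spots of either probe orientation.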
row,Sequence,gcPBM binding intensity (ln)
1,ATTTTGTAAAAGGTCATACACACATATTCAAAAGAA [CACACA_site2946],9.85
2,TGTACAGTATATACAACACACATTTGTATAAATATA [CACACA_site1002],10.2
3,TGTACACCCAGAAATGCACACACATATATATATATA [CACACA_site8716],9.93
4,TGCATAATTAAAAATGGTACACTGTATTTATAATAT [XGTACX_site1575],9.61
5,TATAAATTAAGATAACGTACATATAATAATATAAAC [XGTACX_site487],9.87
6,TATATATATTTTATGTGTACTCAATGTTATAACGCA [XGTACX_site8360],9.57
7,AATAGAGTTGAATGCACACATACAAATTTTTAGTTT [CACACA_site3564],9.9
8,GTTTCTACTTATATAACAGGACACGTGTGAATAATT [TGCATGCA_negctrl_site430],9.84
9,TTGAAGGTGGCAATGTGTACATAGAATAACCAGTGC [XGTACX_site4738],9.82
10,ACAATTGCATCTATCACACATACATACATACATACA [CACACA_site5063],9.94
11,AAAAAAAAAAAACATTGTACGCACATTTTATATGTC [XGTACX_site6974],9.69
12,AAAAAAATACATACGTGTACCCACATATATGTATCT [XGTACX_site5319],9.75
13,AATAAAAATAAAAGCACACATAAATATATATATATT [CACACA_site1441],9.95
14,TCATGGCCATTTTCAGTGCATATGTGTATTTAATAT [GTGCAC_site9529],9.74
15,GCAAGTCCATGAACGGTGCAGGAATTAACAAAAATA,9.5
16,TATAATGATGATGATAGTACGTATTAGTATAAAAAA [XGTACX_site9],9.79
17,TCATGGGTGTATTTCACACACGGATAATCATTTATA [CACACA_site4663],9.79
18,AGAAATAAAAAAAAAAATATATATATTATATATATA [CACACA_negctrl_site1799],9.47
19,ATATTTTTTTTTGTTACACACGTTTTTTAAAAAATG [CACACA_site1603],9.78
20,TCATAAAAATAAAAATGTACACATTAGAAATATTGT [XGTACX_site3671],9.78
21,TTATAATTTTTCTATTGTACATTTAATAATATATAT [XGTACX_site7326],9.5
22,TTATACATATTTATATGTACGTAATATAATATTAAT [XGTACX_site6520],9.55
23,ATGAAGAAATAAATGTGTACATATCTTAGTATCATA [XGTACX_site8658],9.79

row,Sequence,gcPBM binding intensity (ln)
1,TATTTAATTTATACACGTACATATATAAATAATACA [XGTACX_site1148],9.49
2,TATAAATATCTGTATGCACACATTTTTTTTGGAAAA [CACACA_site4734],9.64
3,TCAACAAAATTGAAGGAACACACATACATATATATA [CACACA_site7940],9.85
4,ATTTTTTCTCATAAAAACGTGAACGTTTATTTTACA [CACACA_negctrl_site1041],9.59
5,ATTATAAAAGAATTTTTTTTTATTTCATTAAAATAT [CACACA_negctrl_site1137],9.08
6,AGCACATAAATAATTAAACACACATTGTTCTAGACA [CACACA_site8746],9.78
7,TTACTATAAAATGTCACACATTCTGTTTCCTTACTT [CACACA_site5714],9.78
8,AACGATTTACATCACTGTACTAATGATATACCTCAT [XGTACX_site7463],9.85
9,TATATATATATATATTGTACTATATAGTATCTTTTT [XGTACX_site1646],9.78
10,TATATATTTTCTTTTGCACACTGTTTTCCTTTTTTT [CACACA_site2739],10
11,TACCCTTGCATGTAGGTGCAATTTTTTTTTTTTTTT,9.64
12,TTCGTAATTTATATCACACACATATATATATAATAA [CACACA_site3115],9.85
13,CAACTTTATACATATAGTACAAGTTATATTTTATTA [XGTACX_site6651],9.54
14,TAATAATAGTACTGACATCAAAATCTTATTAAAAAT [GTGCAC_negctrl_site308],9.58
15,TTCTTTTTTATTTTTCAACACACATAATAAATTTCT [CACACA_site8253],9.85
16,CTTTCCATATATGATAGTACACGATAAAAAAAAAAA [XGTACX_site5772],9.34
17,AAAGAAATAAGGTGCACACATATACATATATATATA [CACACA_site429],10.1
18,TTTAAAAAAAATTCATATTATATATATATATATTAT [CACACA_negctrl_site1733],9.5
19,AAGAAATAATTATTATGTACTTAAAAAAATTAAAAT [XGTACX_site7423],9.58
20,AAGAAATAAATACATACACACATATATAAATAAATA [CACACA_site7559],10.1
21,ATATATATATAATTATATAAAATATATCATATGTTA [XGTACX_negctrl_site47],9.56
22,TTTATGTATTTAATATGTACATATAGTTGTTAATAA [XGTACX_site1938],9.6
23,GCTATATATTAATGTTGTACTTTATGTTCATATTGT [XGTACX_site3619],9.88

row,Sequence,gcPBM binding intensity (ln)
1,AAAATGTACGCATATACACACACATAAATAGATACG [CACACA_site9124],10.6
2,TAAATATAGAAACACACACACATTAATACATATATT [CACACA_site3489],10.4
3,AAATTTGAAATGCATGAACACACACCGCTATAAATG [CACACA_site8230],10.3
4,TAATTTTTTATATATTGTACAAATAATATATGATGT [XGTACX_site268],9.49
5,ACATCATAAAATTTATGTACACATTTTTAATTATAC [XGTACX_site7759],9.63
6,ATCATTTTTATGTACACACACATATACGTTGAATAT [CACACA_site1865],10.1
7,AAGGTATACACTGCTTTATCAAGTTTAACTCTTTTT [XGTACX_negctrl_site118],9.65
8,TATAAAATTTACGTGTGTACATATTTAATAATTTTT [XGTACX_site5001],9.69
9,AAGATATGAGGGAATACACACATATTTATATTTATA [CACACA_site6846],9.9
10,TAATTTATAACACGCGCACACATATATATATAGTAA [CACACA_site121],9.86
11,AATAGTGTCATAAAAACTATTATCATATAATGTGAA [CACACA_negctrl_site1578],9.56
12,TTTCTTTTTAACTCTTACATAATAGGTGGTAGAAGG [TGCATGCA_negctrl_site176],9.35
13,TTGTTGTGTATTATCGTGCACATAATATAAAAGATT,9.59
14,TTATTTATTTATTATAGTTCACTTGAAAATACAAGA [CACACA_negctrl_site1480],9.38
15,CATATATACAGTAACACACACAAAAAAATATGAATA [CACACA_site3996],10.5
16,ATAAAAAAAAAAAATACACACATATATATATATATA [CACACA_site1709],9.95
17,AAAAAATATAAAAAAACACACAAAAAAAAAAAAAAA [CACACA_site1382],9.71
18,TTCTTAAAAAATCAAACACACATATATAAATACATA [CACACA_site5301],9.83
19,AAAGACGTTTATAAATGTACATACACTTTAAAAGTT [XGTACX_site8753],9.6
20,CCCCATTTATCTTAAGCATGCCATGGTTTTAGATAT [TGCATGCA_site24],9.76
21,AATTATTTTAGAAACACACAAATTAGAAAAAACATA [CACACA_site7673],9.79
22,GTATATATCTCAGAGCATAATAGTATAATTCGGTCA [CACACA_negctrl_site876],9.52
23,AATAACATTATTTTATGTACACATGAAAAATAAAAT [XGTACX_site4657],9.68

row,Sequence,gcPBM binding intensity (ln)
1,TGATATTTCATCATAGTGCAATATGGCATATAAATA [GTGCAC_site9433],9.51
2,AATATCAAAATAACATGTACATGTTATATTTTATTT [XGTACX_site5891],9.73
3,TGTAATAAACTACTTTTTTTTTTTTTTTTTTTTTTT [CACACA_negctrl_site1021],9.43
4,AATATATATATAAATAGTACATATAAAGAGAATTTT [XGTACX_site3168],9.84
5,CAGAAATATTCTTATACACACTGTTCTTATATTCCT [CACACA_site4318],9.82
6,ATTAAAACAAAATGTACACACATATAATTTAATGAC [CACACA_site878],10.2
7,TTTATCTTTTTTTGTTGTACAGATGTTTATATTTTA [XGTACX_site4065],9.82
8,TATTTTTTTAAAATAGGTACACAATCAAACATTTAT [XGTACX_site8785],9.42
9,ACCTCATAATATTTAACACACAAAATTATCTGTATG [CACACA_site5015],9.9
10,TTATAGACATATATAGGTACACATATTTTCAATCCC [XGTACX_site8230],9.63
11,ATTTATTAATCATATACACACATATATTTGTATTTA [CACACA_site1336],9.84
12,TTTATATAATATTCTACACACCAACAACAAACATAT [CACACA_site4478],10.2
13,ATATATATATATAATACACACATAAATGAATATATA [CACACA_site316],9.93
14,GCATTGATCAAACATACACACATGGTTAATAAAAAT [CACACA_site2085],9.83
15,GTGATTTCTATGAATTGTACTTAAATATAGTTATAT [XGTACX_site231],9.67
16,CGTCCAAAATATCCTTCACACACGAACAGTTTCATT [CACACA_site2729],10.1
17,TTTAAATAAAAATGGAGTACTCTAAAAAAAAAAAAA [XGTACX_site1233],9.37
18,CTATAATATTATAACAGTACATAATATTATATATAT [XGTACX_site1414],9.44
19,ATATGAAAAACTTCATGTACTTATTATAAAATATAA [XGTACX_site2725],9.49
20,TGAAATGAAAGAACAGCACACATATATATTATATAT [CACACA_site8613],9.92
